Experimental data from patent US20060193772A1, “Drugs for treating cancer” (priority 2003, published 2006).
For part of its entries the source gives two or more results. This list holds those alone. There may be further records. The values listed for one entry read as repeated measurements on other runs, samples or individuals.

Target: sm1.2 (manufactured by Upstate Biotechnology), commercially available anti-hIGF-I antibody
Test: competitive ELISA: free hIGF-I inhibits binding of sm1.2 (4.0 µg/mL) to immobilised methylated BSA-hIGF-I

human insulin-like growth factor-I (hIGF-I) (from UniProt P05019 49-118) (ligand)
IC50: 1.2 µg/mL and 156 nM
